Reference: the supplement of paper PMC8285479
Structures can show the parent of a compound that is named as a salt. ± gives the standard deviation of the averaged measurements. Over roughly 1,900 compounds, “normalised cell viability (NPI; 0 = phenylarsine oxide control, 1 = DMSO control)” has its median near 1; the lowest 2% begin near 0.039. Some of the results follow.

Test system: NCI-H1944
Assay: normalised cell viability (NPI; 0 = phenylarsine oxide control, 1 = DMSO control) (fraction of DMSO control); NCI-H1944 is a non-small cell lung cancer line; higher = more viable cells (less compound toxicity)
Settings: 6 days
[1] = glucocorticoid arm: hydrocortisone 2.75 uM co-treatment, compound 1 µM
[2] = glucocorticoid arm: hydrocortisone 2.75 uM co-treatment, compound 5 µM
[3] = glucocorticoid arm: hydrocortisone 2.75 uM pre-treated 2 days and continued, compound 1 µM
[4] = glucocorticoid arm: hydrocortisone 2.75 uM pre-treated 2 days and continued, compound 5 µM
[5] = glucocorticoid arm: vehicle, compound 1 µM
[6] = glucocorticoid arm: vehicle, compound 5 µM
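Also: CTB read-out in 384-well plates, mean of triplicate wells, normalised per plate against 1 µM phenylarsine oxide and 0.1% DMSO, compounds added 24 h after seeding.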

Row | Structure (SMILES) | normalised cell viability [1] | normalised cell viability [2] | normalised cell viability [3] | normalised cell viability [4] | normalised cell viability [5] | normalised cell viability [6]
1 | Cc1cc(C(C)Nc2ccccc2)c2nc(N3CCOCC3)cc(=O)n2c1 (configuration not stated) | 0.931 ± 0.038 | 0.796 ± 0.022 | 0.935 ± 0.0092 | 0.875 ± 0.03 | 0.979 ± 0.013 | 0.95 ± 0.017
2 | Cc1cc(Nc2cc(N3CCN(C)CC3)nc(Sc3ccc(NC(=O)C4CC4)cc3)n2)n[nH]1 [VX-680 (Tozasertib, MK-0457)] | 0.89 ± 0.01 | 0.633 ± 0.02 | 0.9457 ± 0.0051 | 0.794 ± 0.041 | 0.639 ± 0.029 | 0.408 ± 0.031
3 | Cc1cc(Nc2cc(N3CCN(C)CC3)nc(Sc3ccc(NC(=O)C4CC4)cc3)n2)n[nH]1 [VX-680 (MK-0457, Tozasertib)] | 0.849 ± 0.018 | 0.6277 ± 0.0055 | 0.891 ± 0.014 | 0.743 ± 0.0066 | 0.614 ± 0.026 | 0.451 ± 0.0098
4 | Clc1ccc2nsnc2c1NC1=NCCN1 [Tizanidine HCl] | 1 ± 0.017 | 0.998 ± 0.02 | 1 ± 0.028 | 1 ± 0.017 | 0.9927 ± 0.0023 | 1.002 ± 0.0072
5 | CC(=O)Nc1nnc(S(N)(=O)=O)s1 [Acetazolamide] | 1 ± 0.017 | 1 ± 0.017 | 0.999 ± 0.0095 | 0.9895 ± 0.0064 | 0.998 ± 0.0027 | 1 ± 0.011
6 | CCCCOc1ccc(C(=O)Nc2ccc(F)cc2F)cc1 | 1.04 ± 0.044 | 0.998 ± 0.013 | 1.04 ± 0.021 | 1.01 ± 0.022 | 1.02 ± 0.015 | 1.006 ± 0.0069
7 | Nc1nc(OCc2cc(Br)cs2)c2[nH]cnc2n1 [Lomeguatrib] | 0.984 ± 0.014 | 0.9813 ± 0.0015 | 0.981 ± 0.02 | 0.98 ± 0.018 | 0.994 ± 0.004 | 1.002 ± 0.0074
8 | NC(N)=N[C@@H](CCC(=O)O)C(=O)O [alpha-Guanidinoglutaric acid] | 1.01 ± 0.01 | 0.983 ± 0.01 | 1.006 ± 0.0063 | 1.01 ± 0.021 | 0.9917 ± 0.0038 | 1.002 ± 0.0072
9 | Cc1ccc(S(=O)(=O)Nc2nc3ccccc3nc2Nc2ccc3nsnc3c2)cc1 | 1.02 ± 0.02 | 1.03 ± 0.037 | 1.013 ± 0.0058 | 1.01 ± 0.028 | 0.998 ± 0.011 | 0.9983 ± 0.0021
10 | CCOC(=O)C1=C(N)Oc2ccc(Br)cc2C1C(C#N)C(=O)OCC (configuration not stated) | 0.9913 ± 0.0061 | 1.03 ± 0.01 | 0.991 ± 0.024 | 1.02 ± 0.01 | 1.002 ± 0.0068 | 1.003 ± 0.0058
11 | c1ccc2c(c1)CC(N1CCN(c3cccc4c3OCCO4)CC1)C2 | 0.988 ± 0.019 | 0.9857 ± 0.0084 | 0.995 ± 0.015 | 1.03 ± 0.081 | 1.003 ± 0.0058 | 1.02 ± 0.011
12 | CCN(CC)CCNC(=O)c1ccc(N)cc1 [Procainamide HCl] | 0.9963 ± 0.0029 | 1.03 ± 0.011 | 1.001 ± 0.0081 | 1.03 ± 0.017 | 0.9983 ± 0.0029 | 1.01
13 | CCN(CC)CCNC(=O)c1ccc(N)cc1 [Procainamide hydrochloride] | 0.9837 ± 0.0032 | 0.978 ± 0.017 | 0.872 ± 0.23 | 0.978 ± 0.015 | 0.994 ± 0.006 | 0.9777 ± 0.0063
14 | Cc1ccccc1N1CCN(S(=O)(=O)C[C@]23CC[C@H](C[C@@H]2NC(=O)[C@@H](N)CCS(C)(=O)=O)C3(C)C)CC1 [L-368,899 hydrochloride] | 0.99 ± 0.017 | 0.986 ± 0.024 | 0.998 ± 0.013 | 1.01 ± 0.023 | 0.9847 ± 0.0035 | 0.9993 ± 0.0095
15 | O=C(O)c1ccnc(C(=O)O)c1 [2,4-Pyridinedicarboxylic Acid] | 1 ± 0.022 | 0.999 ± 0.045 | 0.996 ± 0.021 | 1.01 ± 0.024 | 0.996 ± 0.015 | 0.999 ± 0.015
16 | CCc1cc2c(cc1CC)CC(NC[C@H](O)c1ccc(O)c3[nH]c(=O)ccc13)C2 [Indacaterol Maleate] | 0.9913 ± 0.009 | 0.982 ± 0.016 | 0.986 ± 0.024 | 0.956 ± 0.062 | 1.002 ± 0.0068 | 0.9953 ± 0.0045

Row | Structure (SMILES) | normalised cell viability [1] | normalised cell viability [2] | normalised cell viability [3] | normalised cell viability [4] | normalised cell viability [5] | normalised cell viability [6]
17 | c1cc(CN2CCCCC2)cc(OCCCNc2nc3ccccc3s2)c1 | 1.01 | 0.9913 ± 0.0076 | 0.897 ± 0.22 | 1.07 ± 0.029 | 1.017 ± 0.0058 | 0.674 ± 0.13
18 | Cc1c(-c2ccc(O)cc2)n(Cc2ccc(OCCN3CCCCCC3)cc2)c2ccc(O)cc12 [Bazedoxifene HCl] | 0.9693 ± 0.0091 | 1.02 ± 0.026 | 0.997 ± 0.024 | 1.02 ± 0.011 | 0.9947 ± 0.0021 | 0.827 ± 0.023
19 | OC[C@H]1O[C@@H](n2cnc3c(N[C@H]4CC5CCC4C5)ncnc32)[C@H](O)[C@@H]1O (some centres not stated) | 1.01 ± 0.022 | 1.013 ± 0.0058 | 1.01 ± 0.015 | 1.02 ± 0.015 | 0.9913 ± 0.0075 | 0.995 ± 0.0061
20 | Cc1ccc(-c2cc(C(F)(F)F)nn2-c2ccc(S(N)(=O)=O)cc2)cc1 [Celecoxib] | 1.02 ± 0.011 | 1.04 ± 0.025 | 1.02 ± 0.01 | 1.04 ± 0.01 | 0.9907 ± 0.0095 | 1.01 ± 0.012
21 | CC(C)[N+]1(C)[C@@H]2CC[C@H]1C[C@@H](OC(=O)C(CO)c1ccccc1)C2 (some centres not stated) [Ipratropium bromide] | 1.003 ± 0.0058 | 0.993 ± 0.012 | 0.996 ± 0.0046 | 0.987 ± 0.015 | 0.9977 ± 0.0025 | 1.002 ± 0.0068
22 | CN[C@H]1CC[C@@H](c2ccc(Cl)c(Cl)c2)c2ccccc21 [Sertraline hydrochloride] | 1.023 ± 0.0058 | 1.05 ± 0.015 | 1.02 ± 0.015 | 0.89 ± 0.29 | 1.003 ± 0.0058 | 1.03 ± 0.01
23 | CN[C@H]1CC[C@@H](c2ccc(Cl)c(Cl)c2)c2ccccc21 [Sertraline HCl] | 1.03 ± 0.011 | 1.08 ± 0.025 | 1.03 ± 0.015 | 1.03 ± 0.015 | 0.9963 ± 0.0047 | 0.98 ± 0.013
24 | COc1ccc2c(c1)c(CC(=O)O)c(C)n2Cc1ccc(F)cc1 [1-(4-Fluorobenzyl)-5-methoxy-2-methylindole-3-acetic acid] | 0.987 ± 0.014 | 0.977 ± 0.017 | 0.983 ± 0.028 | 0.982 ± 0.013 | 0.9717 ± 0.0076 | 0.974 ± 0.0027
25 | CCn1c(N)c(C(=O)NC)c(=O)c2ccc(C#CC(C)(O)COC)nc21 (configuration not stated) | 1.006 ± 0.0063 | 1 ± 0.014 | 1.001 ± 0.0083 | 0.996 ± 0.026 | 0.996 ± 0.015 | 0.975 ± 0.02
26 | OCCn1cc(-c2ccc3c(c2)CC/C3=N\O)c(-c2ccncc2)n1 | 1.1 ± 0.01 | 1.17 ± 0.017 | 1.087 ± 0.0058 | 1.12 ± 0.015 | 1.03 | 1.04 ± 0.01
27 | CNC(=O)c1c(F)cccc1Nc1nc(Nc2cc3c(cc2OC)CCN3C(=O)CN(C)C)nc2[nH]ccc12 | 0.542 ± 0.031 | 0.467 ± 0.013 | 0.622 ± 0.016 | 0.598 ± 0.034 | 0.99 | 0.9713 ± 0.009
28 | COc1ccc2c(c1)c(CC(=O)O)c(C)n2C(=O)c1ccccc1 [1-benzoyl-5-methoxy-2-methylindole-3-acetic acid] | 1 ± 0.011 | 0.9993 ± 0.0011 | 0.9923 ± 0.0093 | 0.99 ± 0.028 | 0.9833 ± 0.0042 | 0.987 ± 0.01
29 | C#Cc1ccc2c(c1)C(=O)N(C)Cc1c(C(=O)OCCCOC(=O)c3ncn4c3CN(C)C(=O)c3cc(C#C)ccc3-4)ncn1-2 [Xli 093 hydrate] | 0.999 ± 0.011 | 1.01 ± 0.015 | 1 ± 0.013 | 1.01 | 0.99 ± 0.01 | 0.9967 ± 0.0015
30 | O=C(/C=C/c1cccc(S(=O)(=O)Nc2ccccc2)c1)NO [Belinostat (PXD101)] | 0.9767 ± 0.0051 | 0.0174 ± 0.0036 | 1.02 | 0.114 ± 0.0036 | 0.575 ± 0.067 | 0.00153 ± 0.00067
31 | CC(C)(C)c1cc(NC(=O)Nc2ccc(-c3cn4c(n3)sc3cc(OCCN5CCOCC5)ccc34)cc2)no1 [Quizartinib (AC220)] | 1.04 ± 0.011 | 1.06 ± 0.015 | 1.023 ± 0.0058 | 1.02 ± 0.051 | 1.05 ± 0.049 | 1.027 ± 0.0058
32 | C=C/C(C)=C/[C@@]1(C)SC(=O)C(C)=C1O [Thiolactomycin] | 0.992 ± 0.0056 | 0.961 ± 0.021 | 1 ± 0.026 | 0.848 ± 0.23 | 0.9883 ± 0.0015 | 0.998 ± 0.012
